The campaign covered roughly 310,000 compounds. About 2,200 (0.71%) showed an effect of 50% or more. The effect is printed as a negative number. The list shows a part of the results.

25 compounds from PMC4336329 (PLoS ONE, 2015) can be followed below.

human ether-à-go-go-related gene (hERG) potassium channel, sequence (Q12809 whole entry, looked up): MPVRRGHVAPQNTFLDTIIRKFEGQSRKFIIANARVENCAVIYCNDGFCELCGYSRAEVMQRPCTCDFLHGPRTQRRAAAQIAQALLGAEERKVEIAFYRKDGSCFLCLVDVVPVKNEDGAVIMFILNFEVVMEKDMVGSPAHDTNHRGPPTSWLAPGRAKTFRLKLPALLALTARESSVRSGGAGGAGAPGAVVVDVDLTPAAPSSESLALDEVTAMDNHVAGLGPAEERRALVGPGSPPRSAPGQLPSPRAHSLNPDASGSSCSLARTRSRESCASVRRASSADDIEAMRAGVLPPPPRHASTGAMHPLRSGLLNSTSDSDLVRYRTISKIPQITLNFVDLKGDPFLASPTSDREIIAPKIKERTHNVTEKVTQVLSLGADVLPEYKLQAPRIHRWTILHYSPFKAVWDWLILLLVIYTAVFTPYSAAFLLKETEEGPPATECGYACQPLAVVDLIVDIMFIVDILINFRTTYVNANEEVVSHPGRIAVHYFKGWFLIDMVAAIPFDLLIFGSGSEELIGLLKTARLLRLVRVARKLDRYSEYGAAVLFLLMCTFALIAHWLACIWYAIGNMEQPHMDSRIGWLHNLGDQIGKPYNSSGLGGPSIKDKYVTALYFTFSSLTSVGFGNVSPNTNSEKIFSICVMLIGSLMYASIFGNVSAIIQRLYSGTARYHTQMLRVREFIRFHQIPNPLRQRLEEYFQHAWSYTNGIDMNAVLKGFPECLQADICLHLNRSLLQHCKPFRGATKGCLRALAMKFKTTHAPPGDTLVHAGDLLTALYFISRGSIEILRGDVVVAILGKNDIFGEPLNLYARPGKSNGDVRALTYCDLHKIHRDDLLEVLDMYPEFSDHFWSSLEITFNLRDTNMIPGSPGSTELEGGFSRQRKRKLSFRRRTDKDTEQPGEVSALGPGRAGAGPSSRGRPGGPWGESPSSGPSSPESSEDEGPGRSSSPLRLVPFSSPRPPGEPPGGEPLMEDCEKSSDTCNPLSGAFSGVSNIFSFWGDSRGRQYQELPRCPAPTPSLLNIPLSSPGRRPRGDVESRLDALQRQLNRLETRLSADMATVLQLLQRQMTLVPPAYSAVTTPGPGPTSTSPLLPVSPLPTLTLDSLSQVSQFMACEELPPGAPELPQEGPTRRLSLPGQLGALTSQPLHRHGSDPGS

This assay addresses human ether-à-go-go-related gene (hERG) potassium channel (human, UniProt Q12809). Nature of the assay: primary screen, population patch clamp on CHO cells stably expressing hERG.
As to `Cc1ccc(Cn2cccc2/C=N/NC(=S)Nc2ccc(C)cc2)cc1`, the “hERG current change (%, negative = inhibition) at 1uM” value is given as 6.19%.
For `COc1ccc2[nH]c(=O)c(CN(C(=O)c3ccncc3)C(C)(C)C)cc2c1` the value was 9.31%; for `O=C(Oc1nsnc1N1CCCCC1)N1CCOCC1`, 17.9%; for `O=C(Nc1ccccc1N1CCOCC1)C1(c2ccc(Cl)cc2)CCC1`, 14.7%.
On to `CC(C)Cc1cc(C(=O)N2N=C(C(F)F)CC2(O)C(F)F)c2ccccc2n1` (stereo not shown), for which the “hERG current change (%, negative = inhibition) at 1uM” value is given as -1.33%.
For `Cc1cccc(-n2nc(C)cc2N)c1` the value was 13.1%; for `CCCN1CCC(NC(=S)Nc2ccc(OC)c(OC)c2)CC1`, 12.1%.
Turning to `NC(=O)C(NC(=O)OCc1ccccc1)c1ccccc1` (stereo not shown), the “hERG current change (%, negative = inhibition) at 1uM” value is -0.655%.
For `CNC(=O)c1cc(OCC(F)(F)F)ccc1OCC(F)(F)F` the value was 2.06%; for `CCc1cc2c(N[C@@H](Cc3c[nH]c4ccccc34)C(=O)O)ncnc2s1`, 14.5%; for `CCOc1ccc(NC(=O)COC(=O)c2ncc(Cl)c(Cl)c2Cl)cc1`, 10.2%.
For `Cc1ccc(NC(=O)c2sc3ncn(CC(=O)N4CCN(c5ccccn5)CC4)c(=O)c3c2C)cc1F` the value was -7.49%; for `CCOC(=O)N/N=C\c1ccc(-c2cc(Cl)ccc2Cl)o1`, 0.0486%.
Under `CC(C)Sc1nc2[nH]ncc2c(=O)[nH]1` stands 6.82%.
As for `CCOC(=O)C1(C/C(C)=N/NC(N)=O)CC(C)OC1=O` (stereo not shown), the “hERG current change (%, negative = inhibition) at 1uM” value came out at 10.5%.
Turning to `CCn1cc(C(=O)NCc2ccccn2)c(=O)c2cc(F)c(N3CCN(C)CC3)cc21`, the “hERG current change (%, negative = inhibition) at 1uM” value came out at 7.54%.
Under `Cc1nn(CC(=O)N(C)Cc2ccc(F)cc2)c(C)c1[N+](=O)[O-]` stands 5.72%; under `COc1ccc(Cl)cc1NC(=O)COC(=O)CCc1cc(OC)c(OC)c(OC)c1`, 11.7%; under `N#CCCn1cc(C(=O)Nc2ccc(C(=O)O)cc2)c(-c2cccc(Br)c2)n1`, 16.5%.
Under `CCC(c1nnnn1C(C)(C)CC)N(CCN1CCOCC1)Cc1cc2cc(C)ccc2[nH]c1=O` (stereo not shown) stands 10.7%; under `Cc1ccc(-c2cc(C(=O)N/N=C\c3cnn(C)c3C)c3ccccc3n2)cc1C`, 1.51%.
Under `CCCCn1c(Nc2ccc(OC)cc2)nc2ccccc21` stands 14%; under `O=C(CSc1nnnn1C1CCCC1)c1ccc2c(c1)OCCO2`, 13.8%; under `Cc1cnc(CN(C)C(=O)c2ccc3oc(Cc4ccc(Cl)cc4)nc3c2)[nH]1`, -5.24%.
As for `Cc1ccc(N(C(=O)c2snc(C(N)=O)c2N)C(C(=O)NCCC(C)C)c2ccco2)cc1` (stereo not shown), the “hERG current change (%, negative = inhibition) at 1uM” value is -8.79%.
